In PubChem BioAssay AID1347165 (National Center for Advancing Translational Sciences (NCATS), 2019):
Values joined by “and” are separate entries in the source; they are usually repeats but may differ in a detail not shown here. Identical values can stand only once. Screen size: about 220,000 compounds; about 5,700 (2.6%) were called active. Inconclusive means that the source gave no clear call. Such entries were picked first, then a sample of the others. Calls come from the whole dose curve; as a rule, active = well fitted inhibition curve with a large enough effect; inconclusive = small, poorly fitted or top-dose-only effect; inactive = no such curve, though single readings can be large or run the other way. A potency beside an inconclusive call is a rough fit, not a confirmed value.

target: Lysine-specific demethylase 5B (Homo sapiens) (UniProt Q9UGL1); assay: Primary screen for KDM5B Histone Demethylases FDH-coupled qHTS; conditions: FDH-coupled NADH fluorescence (FDH is formaldehyde dehydrogenase); activity change, negative = inhibition: at 57.7 µM (top of the series) unless noted; note: nearly all actives have a fitted effect of over 70% in size; for activity change, negative = inhibition: 0% is about no effect
Outline: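 Inhibition is measured as reduced NADH fluorescence generation from FDH coupling to formaldehyde release. Truncated KDM5BΔAP at 200 nM final acts on H3K4me3 peptide (12.5 µM in substrate mix) in pH 7.5 HEPES buffer with Tween-20, 30 min, room temperature.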
Potency is the fitted concentration of half-maximal effect; tags give direction and shape of the fitted curve.

Sequence of UniProt Q9UGL1 (Q9UGL1 whole entry, looked up, the tested form may be a part): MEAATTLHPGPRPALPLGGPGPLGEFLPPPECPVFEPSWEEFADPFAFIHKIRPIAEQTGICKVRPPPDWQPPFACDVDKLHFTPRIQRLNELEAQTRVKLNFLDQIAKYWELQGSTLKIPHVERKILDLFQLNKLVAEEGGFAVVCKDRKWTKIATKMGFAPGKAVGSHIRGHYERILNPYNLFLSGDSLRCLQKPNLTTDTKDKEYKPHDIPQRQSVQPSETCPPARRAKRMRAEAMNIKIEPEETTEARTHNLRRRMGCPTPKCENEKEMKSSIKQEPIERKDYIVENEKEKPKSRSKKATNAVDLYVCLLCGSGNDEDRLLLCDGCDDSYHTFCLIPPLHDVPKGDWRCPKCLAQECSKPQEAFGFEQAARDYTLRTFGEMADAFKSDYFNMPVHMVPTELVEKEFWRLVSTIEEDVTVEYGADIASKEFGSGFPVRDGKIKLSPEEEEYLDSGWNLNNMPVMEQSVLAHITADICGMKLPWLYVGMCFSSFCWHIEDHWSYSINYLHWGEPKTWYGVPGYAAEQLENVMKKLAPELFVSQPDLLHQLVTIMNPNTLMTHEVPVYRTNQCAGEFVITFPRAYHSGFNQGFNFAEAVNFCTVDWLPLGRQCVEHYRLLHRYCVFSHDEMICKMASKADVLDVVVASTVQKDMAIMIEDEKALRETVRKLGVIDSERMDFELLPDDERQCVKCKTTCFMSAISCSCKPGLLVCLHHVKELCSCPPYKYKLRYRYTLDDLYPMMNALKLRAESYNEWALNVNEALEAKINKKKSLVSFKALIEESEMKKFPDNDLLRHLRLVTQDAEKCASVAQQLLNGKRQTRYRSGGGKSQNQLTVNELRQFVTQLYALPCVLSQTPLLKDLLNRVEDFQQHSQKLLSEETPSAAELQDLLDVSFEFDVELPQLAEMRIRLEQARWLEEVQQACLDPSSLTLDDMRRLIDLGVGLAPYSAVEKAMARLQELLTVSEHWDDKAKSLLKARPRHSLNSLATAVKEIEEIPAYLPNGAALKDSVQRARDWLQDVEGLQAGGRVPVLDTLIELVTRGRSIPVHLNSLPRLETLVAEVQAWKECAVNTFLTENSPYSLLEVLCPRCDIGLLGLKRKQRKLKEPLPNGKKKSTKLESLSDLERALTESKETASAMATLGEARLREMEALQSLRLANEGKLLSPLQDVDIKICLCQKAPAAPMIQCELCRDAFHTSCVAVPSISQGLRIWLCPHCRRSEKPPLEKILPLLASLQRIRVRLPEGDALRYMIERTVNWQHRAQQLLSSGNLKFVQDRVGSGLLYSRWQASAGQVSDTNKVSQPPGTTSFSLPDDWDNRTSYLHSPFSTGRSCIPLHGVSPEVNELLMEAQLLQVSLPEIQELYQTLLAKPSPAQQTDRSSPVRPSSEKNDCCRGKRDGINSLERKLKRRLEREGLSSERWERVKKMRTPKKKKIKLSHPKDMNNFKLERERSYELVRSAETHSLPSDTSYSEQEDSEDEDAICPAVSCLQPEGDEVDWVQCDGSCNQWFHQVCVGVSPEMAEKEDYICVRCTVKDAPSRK

Which Potency does the source give for `COc1ccc(-c2nc(CCNC(=O)c3ccccc3)cs2)cc1OC` here?
Its Potency is inconclusive: 25.1 µM [inhibitor, partial curve, poor fit].

How did the Potency turn out when `CCOc1cc(/C=C/c2ccc3ccccc3n2)ccc1O` was run?
Its Potency is inconclusive: 25.1 µM [inhibitor, partial curve, poor fit].

How did the Potency turn out when `CN1Cc2ccc(N3CCOCC3)nc2C(C)(C(=O)NCCCn2ccnc2)C1` (stereo unspecified) was run?
The Potency was active: 31.6 µM.

With `Fc1ccc(-c2csc(=Nc3cccc(C(F)(F)F)c3)n2Cc2ccc3c(c2)OCO3)cc1` as the molecule, how does the Potency read?
The Potency was inconclusive: 31.6 µM [inhibitor, single point].

Which “activity change, negative = inhibition” value does the source give for `C[C@]1(O)CCN(C(=O)c2ccc3c(c2)OCC(=O)N3)C[C@@H]1O` here?
Its value is inactive: 33.6%.

How did the Potency turn out when `Cc1cc(-c2cc3c(cn2)N(C)CCN(C)C3)ccn1` was run?
The Potency was active: 31.6 µM.

`Cc1cnccc1CN(C)Cc1ccc2c(C)cc(=O)oc2c1` was tested. Which Potency did it give?
The Potency was inconclusive: 11.2 µM [inhibitor, partial curve, poor fit].

How did the “activity change, negative = inhibition” value turn out when `O=C(CSc1nnnn1C1CCCC1)NCc1ccc(CN2CCOCC2)cc1` was run?
Its value is inactive: 4.79%.

How did the Potency turn out when `COc1cccc(NC(=O)CCCn2c(=O)c3cccn3c3cccnc32)c1` was run?
Its Potency is inconclusive: 17.8 µM [inhibitor, partial curve, poor fit].

`COc1ccc(Nc2ncc(-c3cnn(C)c3)c3c2OCC3)cc1` was tested. Which Potency did it give?
Its Potency is active: 35.5 µM.

`Cc1ccc(C(=O)N(CC2CCN(Cc3ccccc3F)CC2)CC2CCCO2)s1` (stereo unspecified) was tested. Which “activity change, negative = inhibition” value did it give?
Its value is inactive: -20%.

With `COc1cc(C2Nc3ccccc3C(=O)N2NS(C)(=O)=O)ccc1O` (stereo unspecified) as the molecule, how does the Potency read?
Its Potency is inconclusive: 22.4 µM [inhibitor, partial curve, poor fit].

`CC(C)N1C[C@H](O)C[C@H]1c1nnc2n1CCN(C(=O)CN1CCCC1=O)CC2` was tested. Which Potency did it give?
The Potency was inconclusive: 17.8 µM [inhibitor, single point].

With `COc1ccc(-c2ccc3nnc(CNC(=O)C(C)Oc4ccccc4)n3n2)cc1` (stereo unspecified) as the molecule, how does the Potency read?
Its Potency is active: 31.6 µM.

For `O=C(Nc1ccc(CC(=O)N2CCOCC2)cc1)c1cccc(Cl)c1`, which “activity change, negative = inhibition” value is on record?
Its value is inactive: 4.31%.

With `CCCn1c2ccccc2c2cnn(CC(=O)NCCCN(CC)c3ccccc3)c(=O)c21` as the molecule, how does the Potency read?
The Potency was inconclusive: 28.2 µM [inhibitor, partial curve, poor fit].

With `CCN(Cc1nccn1C)C(=O)c1ccc(NCc2cccc(C)c2)nc1` as the molecule, how does the Potency read?
The Potency was inconclusive: 15.8 µM [inhibitor, partial curve, poor fit].

Which Potency does the source give for `COC(=O)N(C)C1CCCc2ccccc21` (stereo unspecified) here?
The Potency was inconclusive: 14.1 µM [inhibitor, partial curve].

`COC[C@@H]1CN(c2ncccn2)C[C@H]1C(=O)Nc1ccncc1` was tested. Which Potency did it give?
The Potency was active: 20 µM.

How did the “activity change, negative = inhibition” value turn out when `COc1ccccc1-c1cc(C(=O)NCCc2ccc(Cl)cc2)nn2cccc12` was run?
The value was inactive: -12.9% [at 115 µM].

For `Cc1cc(C(F)(F)F)c(C#N)c(SCc2cccc(C(F)(F)F)c2)n1`, which “activity change, negative = inhibition” value is on record?
The value was inactive: 3.49%.

Which “activity change, negative = inhibition” value does the source give for `O=C(C1CC1)N1CCC(N2C(=O)C3(CCCCC3)C2c2ccccc2)CC1` (stereo unspecified) here?
Its value is inactive: 19.8%.

How did the Potency turn out when `O=C(Nc1cccc2cccnc12)c1ccc(-c2cccc(Cl)c2)o1` was run?
The Potency was inconclusive: 1.26 µM [inhibitor, full curve, poor fit].

Which Potency does the source give for `COc1cccn(CC(=O)N(Cc2ccc(SC)cc2)C2CC2)c1=O` here?
The Potency was inconclusive: 25.1 µM [inhibitor, partial curve, poor fit].

How did the “activity change, negative = inhibition” value turn out when `CCN(Cc1ccc2c(c1)OCO2)C(=O)NC(c1ccc2c(c1)OCCCO2)C(C)C` (stereo unspecified) was run?
The value was inactive: -14.9%.

With `Cc1noc(C)c1CC(=O)N1CCCC1c1nc(C2CCOCC2)no1` (stereo unspecified) as the molecule, how does the Potency read?
Its Potency is inconclusive: 17.8 µM [inhibitor, partial curve].

`COCC1CN(C2CCC2)CC12CCN(C(=O)c1ccccc1Cl)CC2` (stereo unspecified) was tested. Which Potency did it give?
The Potency was inconclusive: 31.6 µM [inhibitor, partial curve, poor fit].

Which “activity change, negative = inhibition” value does the source give for `Cc1cnc(C(=O)Oc2ccc(Cl)cc2)cn1` here?
Its value is inactive: 4.4%.

With `O=C(O)Cn1cc(C(C(=O)O)N2CCN(c3ccccc3)CC2)c2ccccc21` (stereo unspecified) as the molecule, how does the “activity change, negative = inhibition” value read?
Its value is inactive: -16.6%.

With `O=C1NCCCCCCN(Cc2ccncc2)[C@@H]2CN(Cc3ccc(O)cc3)CC[C@H]12` as the molecule, how does the Potency read?
Its Potency is inconclusive: 28.2 µM [inhibitor, partial curve, poor fit].

Which “activity change, negative = inhibition” value does the source give for `Cc1c(C#N)c(NC(=O)CN(CC(N)=O)C(C)C)n(Cc2ccco2)c1C` here?
The value was inactive: 0.072%.

`CCc1ccc(NC(=O)c2ccc(Cn3nc(N4CCN(c5ccccc5)CC4)ccc3=O)o2)cc1` was tested. Which Potency did it give?
The Potency was inconclusive: 3.16 µM [inhibitor, partial curve, poor fit].

`CCCn1nc(C(=O)Nc2ccc(Br)c(C(F)(F)F)c2)c2ccccc2c1=O` was tested. Which Potency did it give?
Its Potency is inconclusive: 39.8 µM [inhibitor, single point].

With `COc1ccc(CC(=O)N[C@@H]2CN(c3ccncn3)C[C@H]2CO)cc1` as the molecule, how does the “activity change, negative = inhibition” value read?
Its value is inactive: -4.96%.

For `COc1ccc(-c2cc(C(=O)N(C)CC(=O)Nc3ccccc3C(F)(F)F)c3ccccc3n2)cc1OC`, which Potency is on record?
The Potency was inconclusive: 10 µM [inhibitor, partial curve, poor fit].

How did the Potency turn out when `COCCCn1c(SCC(=O)Nc2ccc(F)cc2)nc2c(sc3ccccc32)c1=O` was run?
The Potency was inconclusive: 1.41 µM [inhibitor, partial curve, poor fit].

With `Cc1cc(=O)oc2cc(OCC(=O)N3CCCC3)c(Cl)cc12` as the molecule, how does the Potency read?
The Potency was inconclusive: 22.4 µM [inhibitor, partial curve, poor fit].

Which Potency does the source give for `Cc1cc(-c2nn(-c3ccccc3F)cc2CN2CCC(N(C)C)C2)c(C)s1` (stereo unspecified) here?
Its Potency is inconclusive: 15.8 µM [inhibitor, partial curve, poor fit].

How did the Potency turn out when `Nc1c(-c2ccc3c(c2)OCCO3)oc2ccccc2c1=O` was run?
Its Potency is inconclusive: 35.5 µM [inhibitor, partial curve, poor fit].

With `CC(=O)N1CC2(CCN(Cc3c[nH]c4ccccc34)CC2)Cc2ccccc21` as the molecule, how does the Potency read?
Its Potency is inconclusive: 100 µM [inhibitor, partial curve, poor fit].

`Cn1nccc1-c1nccc2c(=O)cc(N3CCOCC3)oc12` was tested. Which Potency did it give?
Its Potency is active: 35.5 µM.

With `CC1CCCN(C(=O)CSc2nnc(-c3ccccc3)o2)C1` (stereo unspecified) as the molecule, how does the “activity change, negative = inhibition” value read?
Its value is inactive: 3.54%.

How did the Potency turn out when `COc1ccc(CNC(=O)c2cc3cccc4c3n2CC(C)S4)cc1OC` (stereo unspecified) was run?
Its Potency is inconclusive: 31.6 µM [inhibitor, partial curve, poor fit].

Which Potency does the source give for `O=S(=O)(NCC1CCN(c2ccc(S(=O)(=O)N3CCOCC3)cc2)CC1)c1ccccc1` here?
The Potency was inconclusive: 39.8 µM [inhibitor, single point].

Which Potency does the source give for `COCCCn1c(=O)c2sccc2n2c(CCCC(=O)Nc3cccc(OC)c3)nnc12` here?
The Potency was inconclusive: 17.8 µM [inhibitor, partial curve, poor fit].

`Cc1ccc(CNS(=O)(=O)c2ccc3[nH]c4c(c3c2)CCCCC4)cc1` was tested. Which Potency did it give?
Its Potency is inconclusive: 25.1 µM [inhibitor, single point].

How did the Potency turn out when `CCc1csc(CNC(=O)c2ccc(N3C[C@@H](C)O[C@@H](C)C3)nc2)n1` was run?
The Potency was inconclusive: 5.01 µM [inhibitor, single point].

How did the Potency turn out when `Cc1ccc(N(CC(=O)NCCSc2ccccc2)S(=O)(=O)c2ccc(F)cc2)cc1` was run?
The Potency was inconclusive: 35.5 µM [inhibitor, partial curve, poor fit].

With `Cc1cc(C(=O)NC(C)c2ccccc2Br)c(C)[nH]1` (stereo unspecified) as the molecule, how does the “activity change, negative = inhibition” value read?
The value was inactive: -16.9%.

`COc1ccc(-c2nc(N3CCOCC3)cc3c2CN(Cc2cnn(C)c2)C3=O)cn1` was tested. Which Potency did it give?
Its Potency is active: 39.8 µM.

For `COc1cc(CNC(=O)c2ccc3c(c2)N(C)C2CCCN2C3=O)cc(OC)c1` (stereo unspecified), which Potency is on record?
The Potency was inconclusive: 28.2 µM [inhibitor, partial curve, poor fit].

Which Potency does the source give for `COc1ccc(-c2cc(C(=O)N3CCCCCC3)c3ccccc3n2)c(OC)c1` here?
Its Potency is inconclusive: 22.4 µM [inhibitor, partial curve, poor fit] and inconclusive: 25.1 µM [inhibitor, single point].

For `N#Cc1ccc(CN2CCC(C3CCNC3)CC2)cc1` (stereo unspecified), which Potency is on record?
Its Potency is inconclusive: 20 µM [inhibitor, partial curve, poor fit].

For `COc1cc(F)ccc1-c1cc2c(ccn2CC2CCN(C)CC2)c(N2CCOCC2)n1`, which Potency is on record?
The Potency was inconclusive: 39.8 µM [inhibitor, partial curve, poor fit].

`COCC(=O)N1CCC(Oc2ncccc2C(=O)N(C)C)CC1` was tested. Which “activity change, negative = inhibition” value did it give?
The value was inactive: 16%.

With `Cc1cc(NC(=O)COc2cccc(Cl)c2)n(C)n1` as the molecule, how does the “activity change, negative = inhibition” value read?
Its value is inactive: 8.88%.

Which Potency does the source give for `COc1ccc(CNc2oc(/C=C/c3cc(OC)c(OC)c(OC)c3)nc2C#N)cc1` here?
Its Potency is inconclusive: 28.2 µM [inhibitor, partial curve, poor fit].

Which Potency does the source give for `O=C(Cn1c(-c2cccs2)cc2cc(F)ccc21)N1CCN(c2ccccc2)CC1` here?
The Potency was inconclusive: 4.47 µM [inhibitor, full curve, poor fit].

Which Potency does the source give for `CCOc1ccc(Nc2oc(/C=C/c3ccc(OC)c(OC)c3)nc2C#N)cc1` here?
Its Potency is inconclusive: 17.8 µM [inhibitor, partial curve, poor fit].

`CCC1=C(C(=O)OC)C(c2ccccc2Cl)N2C(CC(=O)NCc3ccco3)=CSC2=N1` (stereo unspecified) was tested. Which Potency did it give?
The Potency was inconclusive: 25.1 µM [inhibitor, single point].

Which “activity change, negative = inhibition” value does the source give for `Cn1c(SCc2csc(-c3ccccn3)n2)nnc1C1CC1` here?
The value was inactive: 1.94%.

How did the Potency turn out when `Cc1cccn2c(=O)c(C(=O)NC(C)c3ccccc3)c(O)nc12` (stereo unspecified) was run?
The Potency was inconclusive: 35.5 µM [inhibitor, partial curve, poor fit].

Which Potency does the source give for `CCOC(=O)N1CCN(S(=O)(=O)N2CCCC(C(=O)NCc3cc(Br)ccc3OC)C2)CC1` (stereo unspecified) here?
Its Potency is inconclusive: 28.2 µM [inhibitor, partial curve, poor fit].

`CS(=O)(=O)N(C1CC1)C1CCOC2(CCN(C(=O)COc3ccc(F)cc3)CC2)C1` (stereo unspecified) was tested. Which “activity change, negative = inhibition” value did it give?
The value was inactive: -14.4%.

Which “activity change, negative = inhibition” value does the source give for `CCCCNC(=O)c1cc(-c2ccccc2)nc2ccccc12` here?
The value was inactive: -11.5%.

Which Potency does the source give for `Cc1cc(=O)c2cc(C(=O)Nc3ccc(F)cc3)ccc2[nH]1` here?
The Potency was inconclusive: 25.1 µM [inhibitor, single point].
